Reference: PMC4336329 (PLoS ONE, 2015)
In all, about 310,000 compounds went through this assay and about 14,000 (4.5%) showed an effect of 50% or more. Effects have a minus sign here. The list shows a part of the results.

What follows are compounds tested against human ether-à-go-go-related gene (hERG) potassium channel (human, UniProt Q12809) (assay: primary screen, population patch clamp on CHO cells stably expressing hERG).
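Also: peak tail current of the secondary pulse compared with the same well before compound.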

Chain of human ether-à-go-go-related gene (hERG) potassium channel (Q12809 whole entry, looked up): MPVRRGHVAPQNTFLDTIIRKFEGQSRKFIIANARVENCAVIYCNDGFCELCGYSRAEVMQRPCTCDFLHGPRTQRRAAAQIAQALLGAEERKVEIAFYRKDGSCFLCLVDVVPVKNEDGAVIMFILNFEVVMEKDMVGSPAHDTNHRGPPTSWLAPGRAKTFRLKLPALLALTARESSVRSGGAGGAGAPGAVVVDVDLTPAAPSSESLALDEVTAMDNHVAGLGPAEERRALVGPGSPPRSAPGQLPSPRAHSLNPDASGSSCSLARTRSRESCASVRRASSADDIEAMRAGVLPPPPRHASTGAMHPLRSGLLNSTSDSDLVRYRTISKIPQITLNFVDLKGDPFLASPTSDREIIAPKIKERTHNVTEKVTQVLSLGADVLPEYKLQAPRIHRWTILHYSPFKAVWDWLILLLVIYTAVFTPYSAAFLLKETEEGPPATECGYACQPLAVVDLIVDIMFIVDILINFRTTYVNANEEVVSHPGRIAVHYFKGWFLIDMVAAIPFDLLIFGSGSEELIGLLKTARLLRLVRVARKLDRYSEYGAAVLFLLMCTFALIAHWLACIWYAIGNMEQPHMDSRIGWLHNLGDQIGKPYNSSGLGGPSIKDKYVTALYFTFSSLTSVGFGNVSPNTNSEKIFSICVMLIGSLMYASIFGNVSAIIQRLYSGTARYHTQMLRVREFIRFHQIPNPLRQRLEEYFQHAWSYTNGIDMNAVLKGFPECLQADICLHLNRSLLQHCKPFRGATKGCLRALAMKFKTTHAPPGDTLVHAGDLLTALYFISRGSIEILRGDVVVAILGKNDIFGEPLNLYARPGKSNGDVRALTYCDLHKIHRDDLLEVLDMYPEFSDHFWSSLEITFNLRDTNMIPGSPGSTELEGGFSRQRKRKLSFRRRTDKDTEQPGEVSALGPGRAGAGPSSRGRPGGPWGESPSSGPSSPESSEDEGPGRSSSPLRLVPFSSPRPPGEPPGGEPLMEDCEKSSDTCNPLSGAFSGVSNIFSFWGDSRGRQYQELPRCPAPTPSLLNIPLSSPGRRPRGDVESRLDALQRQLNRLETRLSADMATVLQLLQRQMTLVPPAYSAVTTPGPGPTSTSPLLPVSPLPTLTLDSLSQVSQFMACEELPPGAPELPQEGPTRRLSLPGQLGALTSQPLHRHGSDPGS

| Compound | hERG current change (%, negative = inhibition) at 10uM |
| --- | --- |
| COc1cc(/C=N/Nc2ccc(S(N)(=O)=O)cc2[N+](=O)[O-])cc(OC)c1O | 11.6% |
| C=CCSc1nc2ccccc2c(=O)n1Cc1ccccc1 | -4.88% |
| COc1cccc(/C=N/N2CCOCC2)c1O | 9.22% |
| CC(C)[C@H](NC(=O)Nc1ccccc1F)C(=O)O | 13.1% |
| CCOC(=O)c1c(CN2CCOCC2)n(-c2ccccc2)c2ccc(O)cc12 | -69.2% |
| Cc1ccc(C(=O)N/C(=C/c2ccccc2)C(=O)NCc2ccncc2)cc1 | -65.2% |
| CCOC(=O)c1nn(-c2ccc(F)cc2)c(=O)cc1OCC(=O)Nc1cccc(C)c1 | 4.46% |
| COc1cccc(CN(C)CC(=O)NCc2ccccc2Cl)c1 | -5.14% |
| COc1ccc(OC)c(NC2c3ncccc3C(=O)N2Cc2ccco2)c1 (centres unmarked) | -12.1% |
| CSc1nc2ccc(NC(=O)CSc3nnc(N)s3)cc2s1 | -7.51% |
| Cc1cccc(-n2c(CNC(=O)Cc3ccccc3)n[nH]c2=S)c1 | 20% |
| CN(C)CCCN(C(=O)COc1ccccc1)c1nc2ccc(F)cc2s1.Cl | -68% |
| CC(C)Cc1ccc(/C=C/C(=O)NC2CC2)cc1 | -8.98% |
| O=C(CSc1nc(-c2ccccc2)c(-c2ccccc2)o1)NC1CCS(=O)(=O)C1 (centres unmarked) | -27.1% |
| COc1ccc(NC(=O)C2CCN(S(=O)(=O)c3c(C)noc3/C=C/N(C)C)CC2)cc1 | -15.3% |
| O=C(COC(=O)c1ccc(S(=O)(=O)N2CCCC2)cc1)NCc1ccco1 | -10.1% |
| COc1ccc(CCn2c(C)cc3c(c2=O)C(c2ccc4c(c2)OCO4)C(C#N)=C(N)O3)cc1OC (centres unmarked) | -4.13% |
| CCc1cccc(CC)c1NC(=O)CSc1nnc(C(C)C)n1CC | 7.06% |
| Cc1ccc(NC(=O)C/C(N)=N/OC(=O)c2ccccc2)cc1 | 42.8% |
| O=C(NCC1CCCO1)c1ccc(Cl)c(S(=O)(=O)N2CCCCC2)c1 (centres unmarked) | -37.2% |
| Cc1cc(Cl)c2oc(C(=O)N(C)Cc3ccon3)c(C)c2c1 | 0.492% |
| CCOC(=O)c1sc(=NC(=O)c2ccc(C)cc2)n(C)c1C | 13.8% |
| CCCNC(=O)c1ccc(N2CCC3(CC2)CC(c2ccccc2)=NO3)c(NC(=O)c2cccc(OC)c2)c1 | -68.6% |

| Compound | hERG current change (%, negative = inhibition) at 10uM |
| --- | --- |
| Cc1cccc(N2CC34C=CC(O3)C(C(=O)O)C4C2=O)c1 (centres unmarked) | 4.25% |
| COc1n[nH]c(C(=O)Nc2cc(Cl)ccc2Cl)c1[N+](=O)[O-] | 17.9% |
| O=C(O)c1cc(NC(=O)c2ccco2)cc(NC(=O)c2ccco2)c1 | 18.4% |
| C(=NC12CN3CN(CN(C3)C1)C2)c1cccnc1 | 5.88% |
| COc1ccc(C(=O)CCc2ccccc2)c(O)c1 | 18.6% |
| COCCn1c(SCC(=O)Nc2nc(C)cs2)nnc1C(C)C | 10.2% |
| COC(=O)c1ccc2c(c1)NC(=O)c1ccccc1S2 | 14.7% |
| CC(C)CCNc1nc(N)c([N+](=O)[O-])c(NCC2CCCO2)n1 (centres unmarked) | -7.67% |
| COc1ccc(NC(=O)c2ccc(C(=O)Nc3ccc(OC)cc3OC)cc2)c(OC)c1 | 12.2% |
| COc1ccc(N2CC(C(=O)Nc3cc(C)on3)CC2=O)cc1 (centres unmarked) | 9.44% |
| O=C(CN1C(=O)c2cccnc2Oc2ccc(Cl)cc21)NCCC1=CCCCC1 | 10.3% |
| O=C(Nc1cccnc1Cl)c1ccc(S(=O)(=O)N2CCCCCC2)cc1 | -8.39% |
| COC(=O)Nc1nnc(/C=C/c2ccccc2)s1 | 0.8% |
| Cc1ccc(S(=O)(=O)N2CCOC2CNC(=O)C(=O)NCCc2ccccc2)cc1 (centres unmarked) | -25.6% |
| COc1ccccc1OCCC(=O)OCC(=O)NCc1ccc(Cl)cc1 | -2.19% |
| COc1ccc2oc(C(=O)OCC(=O)N(CC(C)C)c3c(N)n(Cc4ccccc4)c(=O)[nH]c3=O)c(C)c2c1 | -10.8% |
| S=c1[nH]nc(-c2ccco2)n1/N=C/c1ccc(Cl)c(Cl)c1 | 18.9% |
| O=C(NCc1cccc2ccccc12)c1cccs1 | 9.75% |
| CCC(=O)NCc1c(Cl)cccc1-n1cccc1 | -17% |
| O=C(CN1CCN(Cc2ccc(F)cc2)CC1)Nc1ccccc1F | -35.2% |
| COCCN(C(=O)c1cccc(N2C(=O)CCC2=O)c1)c1nc(-c2ccc([N+](=O)[O-])cc2)cs1 | -50.2% |
| Cc1cc(C)cc(NC(=O)N2CCCN(Cc3c(F)cccc3Cl)CC2)c1 | -47.2% |
| Cc1cc(OCC(=O)Nc2ccncc2)ccc1Br | 15.5% |

| Compound | hERG current change (%, negative = inhibition) at 10uM |
| --- | --- |
| CCOC(=O)c1c(C)[nH]c(C(=O)COC(=O)c2ccc(O)cc2)c1C | 5.46% |
| COc1ccc2oc(-c3ccccc3)c(C(N)=O)c2c1 | 10.3% |
| COc1cc(OC)c(C(=O)NC2CCCCCC2)cc1OC | -3.27% |
| COc1cccc(/C=C/C(=O)OCC(=O)NCCc2ccccc2)c1 | 10.9% |
| Cc1cnc(NC(=O)CCCNC(=O)c2ccc(Cl)cc2)s1 | 12.8% |
| Cc1ccc(NC2(C#N)C(=O)Nc3ccccc32)cc1C (centres unmarked) | -0.0165% |
| O=C(COC(=O)c1ccccc1C(=O)c1ccc(Cl)cc1)NCC1CCCO1 (centres unmarked) | 1.96% |
| CCN(CC)C(=O)CSc1nc2ccccc2c(=O)n1OC | -7.23% |
| COC(=O)c1ccc2[nH]c(C)cc(=O)c2c1 | -0.139% |
| Cc1ccc(C)c(S(=O)(=O)Nc2ccc3cn[nH]c3c2)c1 | 1.86% |
| CCOc1cc2[nH]c(=S)n(CC3CCCO3)c(=O)c2cc1OCC (centres unmarked) | -6.67% |
| Cc1ccnc(NC(=S)N2CCN(c3cccc(C(F)(F)F)c3)CC2)c1 | 3.32% |
| CCCN1CCC[C@@H]2Cc3nc(N)ncc3C[C@H]21.Cl | -16.9% |
| COc1ccc(-c2csc3ncnc(N4CCN(S(=O)(=O)c5cccc(F)c5)CC4)c23)cc1 | -3.5% |
| C=CCNc1sc(C(=O)C(C)(C)C)c(N)c1C#N | 5.11% |
| Clc1cccc(-c2nnc3n2CCCCC3)c1 | 21% |
| COc1cccc(/C=C2\Oc3cc(OCC(=O)N4Cc5ccccc5C[C@H]4C(=O)O)ccc3C2=O)c1 | 12.6% |
| Cc1cccn2c(=O)c3cc(C(=O)NCC(C)C)sc3nc12 | -3.21% |
| Cc1ccc(C(=O)N/N=C\c2ccc3c(c2)OCO3)cn1 | -22.5% |
| COc1cc(C=Nc2c(C)cc(C)cc2C)ccc1OC(C)=O | 10.6% |
| Cc1nn(CC(=O)NN)c(C)c1Br | 14.6% |
| O=C(O)c1cccc2nc3ccccc3nc12 | -7.69% |
| CCCNS(=O)(=O)c1ccc(OCC(=O)N2CCN(C)CC2)cc1 | -0.85% |

| Compound | hERG current change (%, negative = inhibition) at 10uM |
| --- | --- |
| O=c1c2ccccc2nc(/C=C/c2cccc(Br)c2)n1CCCO | 9.28% |
| COc1ccccc1-c1noc(CCCC(=O)N2CCOCC2)n1 | -1.97% |
| CCOc1ccc(C(C)=O)cc1Cc1c(O)nc(N)[nH]c1=O | 5.42% |
| Cc1ccc(C(=O)n2cc(CCN3CCS(=O)(=O)CC3)c3ccccc32)cc1 | -6.29% |
| Cc1ccc(OCCCCNC(C)(C)C)c([N+](=O)[O-])c1.O=C(O)C(=O)O | -4.42% |
| O=C1C2C3c4ccccc4C(c4ccccc43)[C@@H]2C(=O)N1c1cccnc1 (some centres unmarked) | 31.7% |
| COc1ccc(S(=O)(=O)N(C)CC(=O)Nc2ccc(C(N)=O)cc2)cc1OC | 25.9% |
| Cc1ccc(C(=O)NC(C)C2CCCO2)o1 (centres unmarked) | 6.72% |
| Cn1cnnc1SCC(=O)Nc1cc(S(=O)(=O)N2CCCCCC2)ccc1Cl | -17.8% |
| COc1ccc(NC(C)C(=O)N2CCN(Cc3ccccc3)CC2)cc1 (centres unmarked) | 24% |
| Cc1cccn2c(=O)c3cc(C(=O)NC4CCCC4)sc3nc12 | -22.8% |
| O=C(NCCCCc1ccccc1)C12CN(Cc3ccccc3)CC1C(c1cccc([N+](=O)[O-])c1)=NO2 (centres unmarked) | -6.27% |
| COC(=O)c1cc(Br)c(=O)n(-c2ccccc2OC)c1 | 6.23% |
| Cc1ccc(-n2c(=O)c3ccc(C(=O)NCc4ccco4)cc3n(Cc3ccccc3C#N)c2=O)cc1 | 24.1% |
| COc1ccc(OC)c(/C=C2\SC(=S)N(C(C(=O)O)c3ccccc3)C2=O)c1 (centres unmarked) | 6.24% |
| O=C(c1cc(Cl)c(=O)n(Cc2ccc(Cl)cc2)c1)N1CCOCC1 | -26.6% |
| C=CCn1c2ccccc2c2nnc(SCC(=O)OCN3C(=O)c4ccccc4C3=O)nc21 | 0.0991% |
| COC(=O)c1cc2sccc2n1CC(=O)Nc1cccc(SC)c1 | 16.3% |
| Cc1cccc(NS(=O)(=O)c2cccc(C(=O)N3CCCC3)c2)c1 | 4.7% |
| O=C1c2cc(N3CCCC3)c([N+](=O)[O-])cc2C(=O)N1c1ccccc1 | 4.3% |
